The record followed here is article PMC12040169 (PLOS Biology, 2025).

The structures appear in SMILES notation. The list shows a part of the results.

For the assay, the system named is T1, C. trachomatis L2/434/Bu expressing GFP (CTL2-GFP).
T1 construct: L2/434/Bu GFP intracellular growth in HeLa cells
Set-up: species or system HeLa; C. trachomatis total inclusion area by high-content imaging, normalised to DMSO. Conditions: total inclusion area; 28.5 h, 10 µM; inhibitor. An outline of the steps:
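High-content imaging followed the bulk GFP/resorufin measurement: fixed, Hoechst-stained cells were scored for GFP inclusions and host nuclei per well. Total inclusion area and count served as growth proxies, nuclei number as the viability proxy. MIC calculation matched the bulk assay.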
Consider `CCc1ccc2c(c1)C(CCNC(=O)c1sccc1C)C(=O)N2` (centres unmarked) [CBK306459], for which the “% of control remaining” value is listed as 94.8011.

For `Cc1ccc(=O)n(CC(=O)N2CCC[C@@H]3NC(=O)c4ccccc4OCCCCC[C@@H]32)n1` [CBK292100], the “% of control remaining” value is given as 100.844.

On to `Cn1cccc1C(=O)N[C@H]1CCN2C(=O)N(c3cccc(F)c3)C(=O)[C@@H]2C1` [CBK289549], for which the “% of control remaining” value was determined as 101.847.

Take `CN(C)C(CNc1nccnc1-c1ccc(CO)cc1)c1cccnc1` (centres unmarked) [CBK038038]: the “% of control remaining” value stood at 114.891.

For the compound `CCOCCCNc1c2c(c(C#N)c3nc4ccccc4n13)CCC2` [CBK263151], the “% of control remaining” value stood at 106.616.

For the compound `O=C(c1cscn1)N1CCN(c2ncccn2)CC1` [CBK144506], the “% of control remaining” value worked out at 105.063.

As for `COC(=O)c1c(C)oc(C)c1S(=O)(=O)Nc1ccc(C(C)C)cc1` [CBK057115], the “% of control remaining” value is listed as 94.4073.

`CCOC(=O)c1c(-c2cccs2)csc1NC(=O)CN1CCCCCC1` [CBK265294G]: the “% of control remaining” value is recorded as 93.6853.

On to `CCCn1ncc(C(=O)N2CCC(Oc3ccccc3F)CC2)c1C` [CBK282169], for which the “% of control remaining” value is listed as 96.6972.

With `COc1ccc(CC(=O)N(C)Cc2nnc3ccccn23)cc1` [CBK304935], the “% of control remaining” value is recorded as 51.229.

Regarding `CN1CCN(Cc2ccc(-c3ccc(C(N)=O)cc3)nc2)CC1` [CBK306750], the “% of control remaining” value worked out at 71.6318.

For the compound `CCOC(=O)N1CCC(NC(=O)N2CCC(C(=O)O)CC2)CC1` [CBK156080], the “% of control remaining” value was determined as 75.6865.

With `Cc1ccc(Cl)c(OC(C)C(=O)N2CCOC(CC(=O)O)C2)c1` (centres unmarked) [CBK304769], the “% of control remaining” value is on record as 76.15.

In the case of `CCCC(N)CCCCCC(=O)O` (centres unmarked) [CBK217078], the “% of control remaining” value is given as 90.4294.

For the compound `CCOC(=O)C1(Cc2ccc(F)cc2F)CCCN(C(C)=O)C1` (centres unmarked) [CBK307516], the “% of control remaining” value was 106.965.

Take `Cn1c(Cc2cccs2)nnc1SCC(=O)c1c[nH]c2ccccc12` [CBK268534]: the “% of control remaining” value came out at 90.4103.

Consider `Cc1cc(C)cc(OC(C)C(=O)N2CCCc3c(cnn3C)C2)c1` (centres unmarked) [CBK285270], for which the “% of control remaining” value came to 91.8527.

On to `COc1cccc(CN2C(=O)CC3(C2=O)C(=O)N(CC(=O)c2ccccc2)c2ccccc23)c1` (centres unmarked) [CBK075984], for which the “% of control remaining” value turned out to be 101.884.

`CC12CCCC(=O)N1C(CO)C(c1ccccc1)O2` (centres unmarked) [CBK011013]: the “% of control remaining” value is 120.792.

As to `O=C(O)C(=O)c1cn(Cc2ccccc2Cl)c2ccccc12` [CBK287035], the “% of control remaining” value turned out to be 78.2027.

Consider `Oc1cccnc1N1CCN(Cc2ccccc2)CC1` [CBK045849], for which the “% of control remaining” value is listed as 82.0347.

As for `Cc1ccc(S(=O)(=O)NCC(=O)Nc2cc3ccccc3c(Br)n2)cc1` [CBK063300], the “% of control remaining” value came out at 93.0548.

As to `CCOC(=O)CCCNC(=O)N1CCN(c2ccccc2OC)CC1` [CBK155618], the “% of control remaining” value is given as 92.5878.

As to `CC(C)(C)SCCNS(=O)(=O)c1ccc(Cl)c(Cl)c1` [CBK057015], the “% of control remaining” value is reported as 20.0101.

As for `CN1C(=O)COc2ccccc2C/C=C/C[C@@H]2[C@H]1CCCN2C(=O)c1cnn2cccnc12` [CBK292083], the “% of control remaining” value was found to be 88.6685.

For `O=c1[nH]c2ccccc2n1C1CCN(S(=O)(=O)c2cc(Cl)cc(Cl)c2O)CC1` [CBK149694], the “% of control remaining” value came out at 102.23.

Turning to `Cc1cccc2c3c([nH]c12)C1(CCCN(Cc2ccc(F)cc2Cl)C1)NCC3` (centres unmarked) [CBK039339], the “% of control remaining” value was 71.8179.

As to `O=c1cc(N2CCCCC2)cnn1Cc1nccn1C1CC1` [CBK307484], the “% of control remaining” value is recorded as 86.1233.

As for `CN1CCN(c2cccc(-c3cc(C(F)(F)F)cc(C(F)(F)F)c3)n2)CC1` [CBK036982], the “% of control remaining” value worked out at 114.616.

For the compound `O=C(O)c1ccc(CNCCN2CCOCC2)cc1` [CBK287223], the “% of control remaining” value turned out to be 85.6111.

Take `C/C(=N\NC(=O)c1nc(-c2ccccc2)cc(-c2ccccc2)n1)c1cccnc1` [CBK262827]: the “% of control remaining” value amounted to 88.4041.

With `Cc1noc(C)c1NC(=O)CCc1cccnc1` [CBK200392], the “% of control remaining” value is recorded as 61.6148.

As for `CN(C)CCNC(=O)C(=O)Nc1ccc(Cl)cc1` [CBK266965], the “% of control remaining” value came out at 95.7344.

As to `CC(=O)N1CC[C@H]2NC(=O)CNC(=O)C3(CCCC[C@H]2C1)CCN(C(=O)CCn1ccnc1)CC3` [CBK292138], the “% of control remaining” value is 72.6245.

As for `O=C(Nc1n[nH]c2ccccc12)c1ccccc1` [CBK017993], the “% of control remaining” value was 73.8395.

`CC(=O)Nc1cccc(-c2cnc3[nH]c(=O)n(C4CC4)c3n2)c1` [CBK064859]: the “% of control remaining” value is 124.132.

As for `O=C(NCCN1CCCC1=O)Nc1ccccc1` [CBK263517], the “% of control remaining” value amounted to 83.814.

Take `O=C(O)c1cccnc1SC1CC(=O)N(Cc2ccccc2)C1=O` (centres unmarked) [CBK263375]: the “% of control remaining” value was 77.4998.

Regarding `COc1ccc(C[C@@]23CC[C@H](NC(=O)NCCc4ccccc4)C[C@@H]2N(C)CC3)cc1` [CBK024127], the “% of control remaining” value worked out at 66.58.

Consider `COc1cccc(C(=O)N2CCN(S(=O)(=O)c3ccc([N+](=O)[O-])cc3)CC2)c1` [CBK157533], for which the “% of control remaining” value stood at 69.4259.

For `CS(=O)(=O)NCC1CCCCN1Cc1ccc(-n2cccn2)cc1` (centres unmarked) [CBK305587], the “% of control remaining” value was determined as 30.3381.

As to `Cc1csc2c(C3CCCN(C(=O)c4cccnc4)C3)nc(C)n12` (centres unmarked) [CBK283329], the “% of control remaining” value was 112.376.

`CCc1nc2ccc(C(=O)N3CCN(C(C)=O)CC3)cn2c1N(C)Cc1ccc(Cl)cc1` [CBK146718]: the “% of control remaining” value was determined as 82.9518.

In the case of `c1ccc(CSc2nnc3ccc(-c4ccncc4)nn23)cc1` [CBK287681], the “% of control remaining” value came to 82.5285.

For `OCCc1ccc(Nc2cc(-c3ccc4c(c3)OCO4)ncn2)cc1` [CBK090767], the “% of control remaining” value is on record as 87.8276.

In the case of `O=C(O)c1ccc(NC(=O)c2cccc(-n3cnnc3)c2)cc1` [CBK270134], the “% of control remaining” value came out at 111.861.

With `CCNC(=S)N[C@H]1CC[C@@]2(Cc3ccccc3Cl)CCN(C)[C@H]2C1` [CBK003708], the “% of control remaining” value is listed as 84.4132.

Turning to `C=C(C)Cn1c(Cc2ccccc2)nnc1SCC(C)C` [CBK200082], the “% of control remaining” value worked out at 5.595.

Regarding `COc1cc(NS(=O)(=O)c2cc(C(=O)O)c(Cl)cc2Cl)cc(OC)c1` [CBK113162], the “% of control remaining” value is reported as 73.2792.

Turning to `Clc1ccc2c(c1)NC(c1ccco1)N1CCN=C21` (centres unmarked) [CBK284479], the “% of control remaining” value came out at 62.2363.

Turning to `CSCCC(=O)Nc1cccc2[nH]ccc12` [CBK159655], the “% of control remaining” value was determined as 97.3153.

On to `CCc1cn(C[C@H](NC(=O)C2CCC2)C(=O)O)c(=O)[nH]c1=O` [CBK289663], for which the “% of control remaining” value is given as 104.405.

In the case of `O=C(c1nc2ccccc2[nH]1)N1CCc2ccccc2C1` [CBK200341], the “% of control remaining” value worked out at 90.8187.

As for `COCC(=O)N(C)C(CO)c1cc(OC)ccc1Br` (centres unmarked) [CBK304780], the “% of control remaining” value is on record as 73.098.

Turning to `CCNC(=O)N1CC2(CCN(CCSC)CC2)c2ccccc21` [CBK126709], the “% of control remaining” value came to 86.3537.

On to `O=C(CN1CCC(NC(=O)c2cccs2)CC1)Nc1cc(F)ccc1F` [CBK305997], for which the “% of control remaining” value stood at 50.9678.

As to `c1ccc(C(CCN2CCc3ccccc3C2)c2ccccc2)cc1` [CBK126404], the “% of control remaining” value is given as 97.9785.

For `Cc1nn(-c2ccc(F)cc2)c(C)c1C(=O)NCc1ccnc(N2CCCC2)c1` [CBK296700], the “% of control remaining” value stood at 67.4745.

Consider `Cn1ncc(Nc2ccccc2)c1C(=O)O` [CBK013004], for which the “% of control remaining” value is 29.14.

For `CCCCN(Cc1ccccc1)C(=O)[C@H]1CCCC[C@H]1C(=O)O` [CBK286596], the “% of control remaining” value amounted to 97.1552.

As to `Cn1cnc([N+](=O)[O-])c1Sc1cccs1` [CBK002620], the “% of control remaining” value came out at 46.4949.

As for `CC(C)(C)OC(=O)N1Cc2c(-c3noc(C4CC4)n3)ncn2-c2ccc(Cl)cc21` [CBK007792], the “% of control remaining” value came to 62.3975.

For `COC(=O)CCC(=O)Nc1snnc1-c1ccc(Cl)cc1` [CBK153241], the “% of control remaining” value was determined as 95.609.

In the case of `c1cc(N2CCN(CCN3CCCC3)CC2)ncc1-c1ccc2c(c1)OCO2` [CBK037769], the “% of control remaining” value was determined as 86.6158.

For `CC(=O)Nc1nnn(CCOc2nonc2C)n1` [CBK027320], the “% of control remaining” value amounted to 103.516.

For the compound `COCCNc1cc(-c2ccc(C(C)=O)s2)ncn1` [CBK090791], the “% of control remaining” value came out at 134.879.

Turning to `Cc1nnc(CS(=O)(=O)Cc2csc(C(C)C)n2)n1C1CC1` [CBK304106], the “% of control remaining” value stood at 38.33.

`COc1ccc(CNC(=O)c2cc(S(=O)(=O)N(C)C)ccc2OC)cc1` [CBK307586]: the “% of control remaining” value is on record as 57.4524.

In the case of `CN1CCC(NC(=O)c2cc3ccccc3[nH]2)CC1` [CBK168633], the “% of control remaining” value is listed as 82.9404.

For `O=C(CC1Sc2ccccc2NC1=O)Nc1ccc([N+](=O)[O-])c(F)c1` (centres unmarked) [CBK264717], the “% of control remaining” value worked out at 98.8453.

For the compound `Cc1ccc(C(C)C(=O)N2CCC(O)(Cn3ccnc3C)CC2)cc1` (centres unmarked) [CBK284660], the “% of control remaining” value was determined as 92.3404.

As for `CC(C)C(=O)N1CCC(OCc2ccc(-c3ccc(C(=O)N(C)C)cc3)cc2S(C)(=O)=O)CC1` [CBK155921], the “% of control remaining” value is reported as 68.7246.

With `CN1CCN(CCC(=O)N2CCN(c3ncccn3)CC2)CC1` [CBK144520], the “% of control remaining” value amounted to 56.6185.

`OC(CN1CCOCC1)Cn1c(-c2ccccc2)c(-c2ccccc2)c2ccc3ccccc3c21` (centres unmarked) [CBK263996G]: the “% of control remaining” value is given as 27.2817.

For `Cc1ccc(C(Cc2ccsc2)NS(=O)(=O)c2ccc3[nH]c(=O)[nH]c(=O)c3c2)nc1` (centres unmarked) [CBK286354], the “% of control remaining” value is reported as 115.448.

For the compound `CCOc1ccccc1C(=O)N1CCC(Cc2cccc(-c3cccs3)c2)(C(N)=O)CC1` [CBK285914], the “% of control remaining” value was determined as 100.984.

For `Cc1nnsc1C(=O)N1CCN(c2cc(C(F)(F)F)ccn2)CC1` [CBK008467], the “% of control remaining” value is listed as 50.643.

Regarding `CC(=O)c1ccc(NC(=O)O[C@@H]2CO[C@H]3[C@@H]2OC[C@@H]3NC(=O)C2CCC2)cc1` [CBK289475], the “% of control remaining” value was 106.805.

`CC(C)C(=O)N1CC(C)N(CCCC(c2ccc(F)cc2)c2ccc(F)cc2)CC1C` (centres unmarked) [CBK024961C]: the “% of control remaining” value was determined as 56.0445.

`CCCc1c(C(=O)N2CCN(c3ncccn3)CC2)cnn1-c1cc(Cl)cc(Cl)c1` [CBK107383]: the “% of control remaining” value is listed as 96.9197.
